This note sets out measurements from publication PMC4336329 (PLoS ONE, 2015).

Among all 310,000 compounds or so, about 2,200 (0.71%) showed an effect of 50% or more. Effects have a minus sign here. This is one part of the list.

In this test the target is human ether-à-go-go-related gene (hERG) potassium channel (human, UniProt Q12809). Briefly: primary screen, population patch clamp on CHO cells stably expressing hERG.
human ether-à-go-go-related gene (hERG) potassium channel, sequence (Q12809 whole entry, looked up): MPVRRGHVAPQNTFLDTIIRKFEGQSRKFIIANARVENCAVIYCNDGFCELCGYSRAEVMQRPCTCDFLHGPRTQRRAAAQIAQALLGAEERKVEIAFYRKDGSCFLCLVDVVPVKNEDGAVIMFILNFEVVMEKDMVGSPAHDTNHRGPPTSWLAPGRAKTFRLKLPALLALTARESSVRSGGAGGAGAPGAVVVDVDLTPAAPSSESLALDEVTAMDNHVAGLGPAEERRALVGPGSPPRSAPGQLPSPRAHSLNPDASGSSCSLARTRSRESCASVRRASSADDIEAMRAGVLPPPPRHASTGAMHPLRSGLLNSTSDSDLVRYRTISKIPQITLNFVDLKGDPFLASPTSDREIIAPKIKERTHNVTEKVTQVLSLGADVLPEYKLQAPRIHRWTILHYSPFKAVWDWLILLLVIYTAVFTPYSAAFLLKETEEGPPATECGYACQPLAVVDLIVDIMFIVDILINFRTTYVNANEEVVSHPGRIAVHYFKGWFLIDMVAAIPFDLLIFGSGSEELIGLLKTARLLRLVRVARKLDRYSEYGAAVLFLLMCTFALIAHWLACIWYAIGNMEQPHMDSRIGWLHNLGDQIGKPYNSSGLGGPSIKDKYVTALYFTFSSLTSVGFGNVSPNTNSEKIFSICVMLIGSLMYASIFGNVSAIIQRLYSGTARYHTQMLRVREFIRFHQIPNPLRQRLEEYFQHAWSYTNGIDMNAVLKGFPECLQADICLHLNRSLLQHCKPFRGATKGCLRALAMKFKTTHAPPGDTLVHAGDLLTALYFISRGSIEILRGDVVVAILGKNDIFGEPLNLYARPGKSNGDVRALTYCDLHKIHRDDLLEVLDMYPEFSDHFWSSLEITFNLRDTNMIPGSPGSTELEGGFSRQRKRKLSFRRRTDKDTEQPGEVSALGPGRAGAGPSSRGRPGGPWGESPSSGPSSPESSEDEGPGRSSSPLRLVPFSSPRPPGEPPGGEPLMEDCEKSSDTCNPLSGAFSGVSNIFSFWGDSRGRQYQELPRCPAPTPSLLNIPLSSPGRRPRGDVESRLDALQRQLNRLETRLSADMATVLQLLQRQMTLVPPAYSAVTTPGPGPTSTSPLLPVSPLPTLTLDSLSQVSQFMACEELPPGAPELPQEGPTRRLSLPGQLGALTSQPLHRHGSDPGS
Take `CCCS(=O)(=O)c1c(S(=O)(=O)CCC)c2c(N)cccn2c1C(=O)c1ccc(Br)cc1`: the “hERG current change (%, negative = inhibition) at 1uM” value is on record as 9.42%. The figure for `Cc1nnc(SCC(=O)c2ccccc2F)n1Cc1ccccc1` is 5.67%.

Take `O=C(NCc1cccnc1)c1ccc(COc2cccc3ccccc23)o1`: the “hERG current change (%, negative = inhibition) at 1uM” value is recorded as 12.1%.

With `COc1cc(C(=O)OCC(=O)Nc2ccc(N3CCOCC3)cc2)ccc1OCC(C)C`, the “hERG current change (%, negative = inhibition) at 1uM” value is on record as 2.6%. Then `CCOc1cccc(NC(=O)c2ccc(S(=O)(=O)N3CCCC3)cc2)c1`, with 3.69%; and `COc1ccc2c(C)cc(N3CCN(c4ccc(F)cc4)CC3)nc2c1`, with -0.066%; and `Cc1c2c(nc3ccccc13)CCC(C)C2.Cl` (centres unmarked), with -0.35%. Then `Cc1ccc(/C=C2\SC(N3CCCCC3)=NC2=O)cc1`, with 11.2%. The figure for `COC(=O)CCCC1=CC2=CC(=O)C(C)(OC(=O)c3cccs3)C(=O)C2=CN1Cc1ccc2c(c1)OCO2` (centres unmarked) is 7.41%. With `O=C(CSc1nnc(-c2cccnc2)o1)Nc1ccccc1Br`, the “hERG current change (%, negative = inhibition) at 1uM” value turned out to be 9.33%.

On to `C#Cc1ccc([C@@H]2C=C(C(=O)NCc3ccccc3)O[C@H](OCc3ccc(CO)cc3)C2)cc1`, for which the “hERG current change (%, negative = inhibition) at 1uM” value is 17.3%. For the compound `COc1ccc(-c2csc3ncnc(NCCCO)c23)cc1`, the “hERG current change (%, negative = inhibition) at 1uM” value was found to be 9.93%.

For the compound `O=C(Nc1ccccc1)C1C2CCC3C(CCC21)C3(Cl)Cl` (centres unmarked), the “hERG current change (%, negative = inhibition) at 1uM” value is on record as 10.2%. Then `O=C(c1cccnc1)N1N=C(C2CCCCC2)CC1(O)C(F)(F)F` (centres unmarked), with 5.34%; and `Brc1ccccc1C1N=C(c2ccccc2)NO1` (centres unmarked), with 12.3%; and `CC(=O)N1CCOc2ccc(S(=O)(=O)NCc3ccc(Cl)cc3)cc21`, with 11.7%. The figure for `CCOC(=O)c1[nH]c(C)c(C(=O)OCc2ccccc2F)c1C` is 15.8%. Regarding `COc1ccc(NS(=O)(=O)c2cccc(C(=O)NNC(=O)c3cc(C)oc3C)c2)cc1`, the “hERG current change (%, negative = inhibition) at 1uM” value came out at 10.5%. Turning to `O=C(CSc1nc2c(c(=O)n1-c1ccc(F)cc1)SCC2)NCc1ccco1`, the “hERG current change (%, negative = inhibition) at 1uM” value is on record as -4.48%. In the case of `CC(=O)c1ccc(NC(=O)[C@@H]2CCCN2C(=O)OC(C)(C)C)cc1`, the “hERG current change (%, negative = inhibition) at 1uM” value is 16.5%. Then `O=S(=O)(NCC1(N2CCOCC2)CCCCC1)c1ccc(F)cc1`, with 8.51%; and `Cn1c(N)c(C(=O)COC(=O)CC(NC(=O)c2ccccc2Cl)c2ccccc2)c(=O)n(C)c1=O` (centres unmarked), with 4.4%. Then `Cc1ccc(NC(=O)CSc2ccc(Br)cc2)cc1S(=O)(=O)N1CCOCC1`, with -11%. On to `COCCn1c(SCC(=O)Nc2ccc(F)cc2F)nc2c([nH]c3ccccc32)c1=O`, for which the “hERG current change (%, negative = inhibition) at 1uM” value was 14.8%. Then `Cl.OC(COCc1ccc2c(c1)OCO2)CN1CCCCC1` (centres unmarked), with 4.84%; and `Cc1cc(NC(=O)CCN2CCN(Cc3ccccc3)CC2)ccc1Br.Cl`, with 7.35%; and `CCN(CC)S(=O)(=O)c1cccc(C(=O)N/N=C(\C)c2cccs2)c1`, with 4.46%. Then `COC(=O)c1ccc(C(=O)OC)c(NC(=S)N2CCN(C)CC2)c1`, with 9.76%; and `O=C(CC1C(=O)NCCN1Cc1cccc(Oc2ccccc2)c1)NCc1cccnc1` (centres unmarked), with 8.42%; and `O=C1CC(N2CCN(C/C=C/c3ccccc3)CC2)C(=O)N1Cc1cccs1` (centres unmarked), with -50.8%.

In the case of `CCCCn1c(O)c(/C=C2\C=NN=C2c2ccccc2)sc1=S`, the “hERG current change (%, negative = inhibition) at 1uM” value is 5.4%.

Turning to `CN(C)S(=O)(=O)c1ccc(NC(=O)CSc2nnnn2C)cc1`, the “hERG current change (%, negative = inhibition) at 1uM” value worked out at 13.4%. The figure for `Cc1cccc(OCC(=O)NC2CCCc3ccccc32)c1C` (centres unmarked) is 14.5%; for `COC(=O)c1cc(OC)c(OC)cc1NC(=O)C(C)Sc1ccc(C)cc1` (centres unmarked) it is 11.8%. The figure for `CCn1nc(NC(=O)C2CCCO2)c2cc3cccc(C)c3nc21` (centres unmarked) is 15.1%; for `COc1cccc(NC(=O)C2CC(=O)N/C(=N/NC(=O)c3ccc(C)cc3)S2)c1` (centres unmarked) it is 9.06%. The figure for `CCc1c(C)nc2c(C#N)c(C)[nH]n2c1=O` is 7.3%. For `O=C(c1ccccc1)N1CCN(c2ccc(Cl)cc2)CC1`, the “hERG current change (%, negative = inhibition) at 1uM” value came to 9.15%. The figure for `Cc1ccc2[nH]c(=O)c(CN(CC3CCCO3)S(=O)(=O)c3cccc4nsnc34)cc2c1` (centres unmarked) is 3.89%; for `Cc1cc(NCCO)c2ccccc2n1.Cl` it is 22.9%; for `Cc1cccc(C(=O)OC(C)C(=O)Nc2ccc(S(=O)(=O)N3CCCC3)cc2)c1O` (centres unmarked) it is 23.3%.

For the compound `CSCC[C@H](NC(=O)Nc1ccc(OC(F)(F)F)cc1)C(=O)O`, the “hERG current change (%, negative = inhibition) at 1uM” value is reported as 6.63%. Then `COc1ccc(C)cc1NC(=O)Nc1ccc2c(c1)CCC2`, with 6.25%. The figure for `Cc1cccc(C)c1NC(=O)CSc1nnc([C@H](C)NC(=O)OC(C)(C)C)o1` is -7.86%.
